The other results are listed elsewhere or left out. Values were computed here from the reads of four pooled replicates and scatter widely.
Each sequence was assayed against T1, Pho4 (S. cerevisiae) (UniProt P07270) (assay: relative binding free energy (BET-seq); higher = weaker binding). Details: reference: library average.
T1 sequence: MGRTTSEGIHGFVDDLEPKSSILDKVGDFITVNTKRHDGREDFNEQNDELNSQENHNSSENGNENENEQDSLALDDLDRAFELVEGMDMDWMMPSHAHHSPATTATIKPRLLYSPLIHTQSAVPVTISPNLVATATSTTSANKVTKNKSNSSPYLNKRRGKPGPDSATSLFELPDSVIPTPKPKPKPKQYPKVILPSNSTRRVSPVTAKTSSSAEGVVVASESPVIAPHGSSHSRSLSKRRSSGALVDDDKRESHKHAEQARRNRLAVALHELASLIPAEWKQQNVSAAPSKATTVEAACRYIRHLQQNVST

Relative binding free energy, 0.27 kcal/mol:
TACTTCACGTGGTTGT

Relative binding free energy, 0 kcal/mol:
CGTGGCACGTGTATGA, TGCAACACGTGTTGTT, GGGGGCACGTGATCGT, ATTGTCACGTGGGACG, TTATGCACGTGTTGAA, CGGGTCACGTGGGGTT, ATAAGCACGTGTGGCG, TTAGACACGTGTATTG, TTGGCCACGTGTTTTT, AGTAGCACGTGTCGTA, AGGTGCACGTGTATTC

Relative binding free energy, -0.05 kcal/mol:
CGTGGCACGTGATATT, TAGTGCACGTGTCGAA, ACGTACACGTGGTGTG, CTGGGCACGTGACAGG

Relative binding free energy, -0.01 kcal/mol:
TGCTGCACGTGTGAAG, GCACGCACGTGTGTTG, TGTGTCACGTGCTTCG, CTGGGCACGTGTGAGG

Relative binding free energy, 0.11 kcal/mol:
TTCTGCACGTGTAGGA, AAGGGCACGTGAGCGG, AAACTCACGTGGTGGT, GGAGTCACGTGGGACG

Relative binding free energy, 0.22 kcal/mol:
GTCTGCACGTGAGGAG, TTGCTCACGTGTGGGA

Relative binding free energy, 0.28 kcal/mol:
GATTTCACGTGTTGGT

Relative binding free energy, 0.33 kcal/mol:
ATTTTCACGTGTGAGG

Relative binding free energy, -0.08 kcal/mol:
TTGAGCACGTGCTATT, CACGTCACGTGGGGTA, AAGGGCACGTGGTACA, CCGGTCACGTGGGGGC

Relative binding free energy, 0.07 kcal/mol:
GGGGGCACGTGATTAC, GGTGCCACGTGTTTAG, GGCCACACGTGGTAGG, ACTGGCACGTGTTGGA, ACGGTCACGTGGGATT

Relative binding free energy, 0.38 kcal/mol:
TTATTCACGTGAACTG

Relative binding free energy, 0.03 kcal/mol:
GGAATCACGTGGGGCT, TTGTACACGTGGCGTT, GTTTGCACGTGGGTTA, ATGTGCACGTGATGCA, CTAGTCACGTGGTAGA, ATACTCACGTGGGGGA, AGAGTCACGTGGTATT, GATAGCACGTGTGGAA, ACTTGCACGTGCTTGT, GAATGCACGTGGCTGT

Relative binding free energy, -0.18 kcal/mol:
AGTACCACGTGTAGGG, GGGGGCACGTGGTGTC

Relative binding free energy, 0.13 kcal/mol:
TGGGACACGTGTTGCG, TCAGTCACGTGGTAAG, TACGTCACGTGTATAT, GGCTACACGTGCGGGT

Relative binding free energy, 0.01 kcal/mol:
CAGCTCACGTGGGTGT, TAAGACACGTGGTTGG, ATAATCACGTGGGATT, GATATCACGTGGTGAG, TAGCGCACGTGAGGTG, TGAGTCACGTGGGCGA, ATATACACGTGTAGGT, GGTAACACGTGGTAGA, TTGTGCACGTGGGAGT, TAAGGCACGTGACGGG

Relative binding free energy, 0.44 kcal/mol:
AAGTTCACGTGGTGAC

Relative binding free energy, 0.08 kcal/mol:
ATGAACACGTGATGGG

Relative binding free energy, 0.32 kcal/mol:
TGTTTCACGTGATGAA, GTGGTCACGTGATTTA, GTATACACGTGAAAGG

Relative binding free energy, 0.24 kcal/mol:
GGCGGCACGTGAAGCG, CCTTTCACGTGGTTAT, ATGGTCACGTGAAGGC, TAGGTCACGTGATGTG

Relative binding free energy, -0.06 kcal/mol:
TAGCGCACGTGGGCTT, AGCAGCACGTGTAGGG, ATAGGCACGTGTTAGG, ATATACACGTGCTGTT, AGAAGCACGTGTATTT

Relative binding free energy, 0.48 kcal/mol:
AGGTTCACGTGTGATT

Relative binding free energy, -0.1 kcal/mol:
GTAGACACGTGGTCTG, GGAGACACGTGGTGGG, TTTGGCACGTGCATTT

Relative binding free energy, 0.19 kcal/mol:
AATTTCACGTGTGTCT, ATTTTCACGTGGTACG, CAGTGCACGTGAGGTT

Relative binding free energy, 0.02 kcal/mol:
GTTAACACGTGGTGGG, ATTAACACGTGGTAAT, TAGATCACGTGGCATG, TCGGTCACGTGTGTGC

Relative binding free energy, 0.36 kcal/mol:
GGGCTCACGTGTAGTC, TCGCACACGTGAGGGG

Relative binding free energy, -0.12 kcal/mol:
GTTCGCACGTGGGTCG, TTCAGCACGTGGCGGT, TGGGGCACGTGTTTAA, TTTGCCACGTGTTGTT, ATGGACACGTGCGTGT

Relative binding free energy, -0.17 kcal/mol:
AGGGCCACGTGGGTAG

Relative binding free energy, 0.35 kcal/mol:
TGGTTCACGTGTATTC, TATTCCACGTGAGGAG

Relative binding free energy, -0.16 kcal/mol:
AGGCGCACGTGTTGCG, TATAGCACGTGGCTGT

Relative binding free energy, -0.09 kcal/mol:
ACGTCCACGTGGGGGT, TGGAGCACGTGTGTCT, TGGTGCACGTGTCTAG

Relative binding free energy, -0.03 kcal/mol:
GTTTGCACGTGCCGTT, GAGGGCACGTGCGACG, CTGGACACGTGTGGGC, TGATACACGTGTGAGT

Relative binding free energy, -0.14 kcal/mol:
AAAAGCACGTGTGGCG, TGGTACACGTGGTATC, TAGGACACGTGGGTCG, TTTAACACGTGGGTTG

Relative binding free energy, 0.23 kcal/mol:
TGAGGCACGTGAGGTT, TAGGACACGTGAGGAA, CGGAACACGTGAGGGT

Relative binding free energy, 0.18 kcal/mol:
GTATTCACGTGGCGTT

Relative binding free energy, 0.2 kcal/mol:
GCTATCACGTGGATGT, TGGCTCACGTGTGCAG, AAGTTCACGTGTGTGT, TGGCACACGTGGAGGC, TGTATCACGTGAGTAA

Relative binding free energy, -0.15 kcal/mol:
GTAGGCACGTGGGCAA, GGTAGCACGTGGGTCT

Relative binding free energy, -0.07 kcal/mol:
CAGTGCACGTGGTTTA, AGTCACACGTGGGGAG, GTTTGCACGTGCGTAA, AGGTCCACGTGGTGTT, CTGTGCACGTGGTTGT, TTTGGCACGTGCAAGA, CCGGGCACGTGTGGGT

Relative binding free energy, -0.28 kcal/mol:
TGCCGCACGTGGTGTG

Relative binding free energy, -0.02 kcal/mol:
CTTGACACGTGTGAGG, GCATACACGTGGGGGT, CGGGTCACGTGGGAGA, TTTAACACGTGCCTGT, TATGTCACGTGCTAAG

Relative binding free energy, 0.21 kcal/mol:
TATCTCACGTGTGGGA, GCAGACACGTGTAGGG, TCTTTCACGTGGTACG, TAAGTCACGTGGGAAC, CGGGACACGTGAGGGA

Relative binding free energy, 0.15 kcal/mol:
TTTGTCACGTGCTGGA, GCTGTCACGTGCTTGG

Relative binding free energy, 0.39 kcal/mol:
GTCATCACGTGAGTAG

Relative binding free energy, 0.1 kcal/mol:
CTGGGCACGTGTAAGT, TGCTACACGTGTTAGG, GTGGTCACGTGTGCTC, AGAGTCACGTGTTTTC, AGTATCACGTGGTTGG, GTGTACACGTGGTTTT, ATGTTCACGTGCGTCG, GGGATCACGTGGGGAC

Relative binding free energy, 0.31 kcal/mol:
AAGTTCACGTGTTTTC

Relative binding free energy, 0.58 kcal/mol:
GAGTTCACGTGGAAAA

Relative binding free energy, 0.16 kcal/mol:
AATGCCACGTGAAGGG

Relative binding free energy, 0.3 kcal/mol:
ACGTTCACGTGTCGTT, GTTTTCACGTGTCATC, CGGGTCACGTGTATGA, ATTTACACGTGAGTTC

Relative binding free energy, 0.12 kcal/mol:
GATTGCACGTGGTAAA, AGGGACACGTGTTGGA, CGTAACACGTGTGGAT, AGCCGCACGTGTGTTG, TAGAGCACGTGAAGTG, TGTGTCACGTGTGAAT, TTCTGCACGTGATATG, CAATTCACGTGGGGAG, CTATTCACGTGTGAGG, GTTGCCACGTGTTATA

Relative binding free energy, 0.17 kcal/mol:
TGTGACACGTGATTGG, AGTTTCACGTGGGCTG

Relative binding free energy, -0.21 kcal/mol:
GGGGGCACGTGCGCGA

Relative binding free energy, 0.26 kcal/mol:
ATCTTCACGTGATTTA, TGATTCACGTGGTGGA, CCGTGCACGTGTGATG

Relative binding free energy, -0.04 kcal/mol:
AGGTACACGTGTCTTG, TTCATCACGTGGGGCT, TTTGACACGTGGCGGC, TTATACACGTGGTTGC

Relative binding free energy, 0.14 kcal/mol:
GTTGACACGTGAGCGT, TAAAACACGTGTATTA, CTATTCACGTGGATTG, GTTGGCACGTGTAGGG

Relative binding free energy, -0.23 kcal/mol:
TGTAGCACGTGGGGAT

Relative binding free energy, -0.11 kcal/mol:
AGTGACACGTGGTCTT, TGTTACACGTGGTCAG, AGATGCACGTGGATAT, TGATGCACGTGTGCGA

Relative binding free energy, 0.06 kcal/mol:
AGTATCACGTGTAATT, TAATTCACGTGCTTGG, TTTGGCACGTGTACGG, TGGGTCACGTGCCCGG, TTCGTCACGTGCTGTT

Relative binding free energy, 0.25 kcal/mol:
GTGTGCACGTGAGTTT, GGGTGCACGTGAGAGA, TGGAACACGTGAGTTA, TCGATCACGTGTTTGG, ATGATCACGTGTGGTC

Relative binding free energy, 0.29 kcal/mol:
GTGTTCACGTGGTAGC, TTGTTCACGTGGTAGC

Relative binding free energy, -0.39 kcal/mol:
AGATACACGTGGGTGT

Relative binding free energy, 0.5 kcal/mol:
AGTTTCACGTGAGAGC

Relative binding free energy, 0.41 kcal/mol:
GTGGTCACGTGTCCTT, GTGTTCACGTGATAGA

Relative binding free energy, 0.05 kcal/mol:
GCCTTCACGTGGGGTG, GCTGGCACGTGGAGTG, AATGACACGTGCTGGG, ACTATCACGTGGTGGT, GGTGACACGTGGGCGG

Relative binding free energy, 0.04 kcal/mol:
GTAGACACGTGGTGTA, ATGCACACGTGGTGCT, TGGGCCACGTGACGGG, ATGAACACGTGTTTAA, TAAGTCACGTGTTCAT, TTCAGCACGTGTTAGA, AGTGGCACGTGTAGCC

Relative binding free energy, 0.09 kcal/mol:
GGTTACACGTGCGGTA, TGGCTCACGTGGTAAG, CCTGTCACGTGTTGTA, GGTTGCACGTGGCTCA, GGGGTCACGTGGCGGG, GAAGTCACGTGTTTGT, CTGTACACGTGTATGT, TGGGGCACGTGAGGGA

Relative binding free energy, 0.34 kcal/mol:
GAGTCCACGTGTTTGG

Relative binding free energy, -0.13 kcal/mol:
TGGGGCACGTGGATCT, TTTTGCACGTGGGGCG, TGGTGCACGTGGGGAC, GGGCGCACGTGGGTTC, GTGAGCACGTGGTTGA

From the BET-seq Pho4 binding data (Le et al. 2018)
